# Measured values taken from PubChem BioAssay (Tox21).
# Values joined by “and” are separate entries in the source; they are usually repeats but may differ in a detail not shown here. Equal values may be shown once. Inconclusive means that the source gave no clear call. Such entries were picked first, then a sample of the others. For some of these results: Potencies of inconclusive entries are doubtful fits and often do not repeat. Active and inactive are the calls of the source. Unless noted, the call rests on the fitted dose curve; in most records, active means well fitted curve in the direction sought with a large enough effect in the repeat runs; inconclusive means weak or mixed curves; inactive means no such curve, though single readings can be large; an effect the other way counts as inactive or inconclusive.
# Legend:
# [1] = qHTS RealTime-Glo MT Cell Viability Assay in HEK293 cells - 24 hour (AID 1224886); further: nearly all actives have a fitted effect of over 50% in size
# Summary of the method: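 HEK293 cells seeded with NanoLuc/prosubstrate reagent, rested 5 h at 37 C, then dosed and kept at 37 C up to 40 h. Nonlytic real-time luminescence from viable cells read at 0, 8, 16, 24, 32 and 40 h.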
# [2] = qHTS RealTime-Glo MT Cell Viability Assay in HEK293 cells - 8 hour (AID 1224887); further: nearly all actives have a fitted effect of over 50% in size
# Summary of the method: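 HEK293 cells mixed with RealTime-Glo reagents (NanoLuc plus cell-permeant prosubstrate) at 600 cells/well, preincubated 5 h at 37 C/5% CO2, then given 23 nL compound in DMSO. Nonlytic luminescence from viable cells was read at 0, 8, 16, 24, 32 and 40 h.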
# [3] = A CellTox Green Cytotoxicity Assay to monitor cytotoxicity in HEK293 cells - 16 hour (AID 1224888); further: nearly all actives have a fitted effect of over 35% in size
# Summary of the method: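 HEK293 cells premixed with CellTox Green dye were seeded at 600 cells/well and left 5 h at 37 C/5% CO2 before pin transfer of 23 nL compound in DMSO. Fluorescence from dye bound to dead-cell DNA was read during 40 h treatment.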
# [4] = qHTS RealTime-Glo MT Cell Viability Assay in HepG2 cells - 0 hour (AID 1224889); further: nearly all actives have a fitted effect of over 50% in size
# Summary of the method: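 HepG2 cells (600/well) were dispensed with RealTime-Glo reagents, incubated 5 h at 37 °C, then treated with compounds in DMSO for up to 40 h. Nonlytic NanoLuc luminescence reflecting viable cells was read at each stated time point.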
# [5] = A CellTox Green Cytotoxicity Assay to monitor cytotoxicity in HepG2 cells - 8 hour (AID 1224890); further: nearly all actives have a fitted effect of over 45% in size
# Summary of the method: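 HepG2 cells were seeded together with the CellTox Green dye at 600 cells/well, left 5 h at 37 C/5% CO2, then given compounds in DMSO. Fluorescence from dye bound to dead-cell DNA was read repeatedly over 40 h of treatment at 37 C.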
# [6] = molecular target: Estrogen receptor (Homo sapiens) (UniProt P03372); assay: qHTS assay to identify small molecule antagonists of the estrogen receptor alpha (ER-alpha) signaling pathway using the BG1 cell line in the presence of 0.1 nM 17-beta-estradiol (AID 1259244); further: nearly all actives have a fitted effect of over 50% in size
# Summary of the method: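 VM7Luc4E2 cells (endogenous full-length ER-alpha, stable 4xERE-luciferase) were grown 5 days in phenol red-free medium with charcoal-stripped FBS, then exposed 22 h at 37C to compounds plus 0.1 nM (final) 17beta-estradiol; ONE-Glo luminescence read-out.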
# [7] = qHTS assay to identify small molecule antagonists of the sonic hedgehog signaling (Shh) pathway (AID 1259369; calls by dose curve; further: nearly all actives have a fitted effect of over 45% in size)
# Summary of the method: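 NIH/3T3-derived 3T3Gli1-Luc cells with stably integrated Gli1-Luc reporter were preincubated 4hr at 37 C, then given compounds in DMSO plus Shh conditioned medium and incubated 24hr. Firefly luciferase luminescence read after 30min reagent at room temperature.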
# [8] = molecular target: Estrogen receptor beta (Homo sapiens) (UniProt Q92731); assay: qHTS assay to identify small molecule antagonists of the estrogen receptor beta (ER-beta) signaling pathway (AID 1259378; active means well fitted inhibition curve with a large enough effect in the signal ratio in the repeat runs, not every such curve was filed as active; inconclusive means weak or mixed curves, or effect the other way; inactive means no such curve, though single readings can be large or run the other way; the % refers to the signal ratio; on activity, negative = inhibition: on the % scale 0 is the no-effect control and ±100 the full control effect); settings: ER-beta-UAS-bla HEK293T, beta-lactamase FRET ratio, 16 h; activity, negative = inhibition: at 92.4 µM (top of the series) unless noted
# Summary of the method: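 ER-beta-UAS-bla HEK293T cells in 2% charcoal-stripped FBS medium treated with compound plus 1nM final 17-beta-estradiol for 16 hr at 37C. Beta-lactamase reporter read by FRET substrate fluorescence after 2 hours at room temperature.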
# [9] = qHTS assay to identify small molecule phospholipidosis (PLD) inducers (AID 1259344; active means well fitted curve in the direction sought with a large enough effect; inconclusive means small, poorly fitted or top-dose-only effect, or another doubt; inactive means no such curve, though single readings can be large; an effect the other way counts as inactive or inconclusive)
# Summary of the method: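 Quantitative HTS in HepG2: compound plus LipidTOX Red dye for 24 h, paraformaldehyde fixation with Hoechst 33342, widefield high-content imaging; amiodarone as positive and DMSO as negative control.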
# [10] = qHTS assay to identify small molecule agonists of the sonic hedgehog signaling (Shh) pathway - cell viability counter screen (AID 1259366); further: nearly all actives have a fitted effect of over 50% in size
# Summary of the method: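 NIH/3T3-derived 3T3 Gli1-Luc cells (stable Gli1-responsive firefly luciferase reporter) were seeded, rested 4 hr at 37 C/5% CO2, then exposed to compounds in DMSO for 24 hr; viability was read by CellTiter-Fluor fluorescence in the same wells.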
# [11] = molecular target: Estrogen receptor beta (Homo sapiens) (UniProt Q92731); assay: qHTS assay to identify small molecule agonists of the estrogen receptor beta (ER-beta) signaling pathway (AID 1259377; active means well fitted activation curve with a large enough effect in the signal ratio in the repeat runs, not every such curve was filed as active; inconclusive means weak or mixed curves, or effect the other way; the % refers to the signal ratio); settings: ER-beta-UAS-bla HEK293T, beta-lactamase FRET ratio, 16 h; activation: at 92.4 µM (top of the series) unless noted
# Summary of the method: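 ER-beta-UAS-bla HEK293T (GripTite) cells carrying a UAS-driven beta-lactamase reporter, in medium with 2% charcoal-stripped FBS, were exposed to compounds for 16 hr at 37C; LiveBLAzer B/G FRET substrate was then added and fluorescence read after 2 hours at room temperature.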
# [12] = qHTS assay to identify small molecule agonists of the androgen receptor (AR) signaling pathway in the presence of an antagonist - cell viability counter screen (AID 1259379); further: nearly all actives have a fitted effect of over 25% in size
# Summary of the method: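 MDA-kb2 human breast carcinoma cells (stable MMTV-luciferase, AR/GR responsive) were seeded 3,000 cells/well, pre-incubated 5 hr at 37C without CO2, then given 3.0uM nilutamide and compounds at 15 concentrations for 16 hr. Viability was read by CellTiter-Fluor fluorescence.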
# [13] = qHTS assay to identify small molecule antagonists of the estrogen receptor alpha (ER-alpha) signaling pathway using the BG1 cell line in the presence of 0.1 nM 17-beta-estradiol - cell viability counter screen (AID 1259241); further: nearly all actives have a fitted effect of over 40% in size
# Summary of the method: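 VM7Luc4E2 cells (endogenous ER-alpha, 4×ERE-luciferase), hormone-starved 5 days in charcoal-stripped FBS, were treated with compounds plus 0.1 nM 17beta-estradiol for 22 hr at 37C; viability read in same wells as CellTiter-Fluor live-cell protease fluorescence.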
# [14] = qHTS assay to identify small molecule antagonists of the sonic hedgehog signaling (Shh) pathway - cell viability counter screen (AID 1259367); further: nearly all actives have a fitted effect of over 55% in size
# Summary of the method: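 Seed 3T3 Gli1-Luc cells at 2,000 per well; incubate 4 hr; add compound in DMSO, then conditioned medium; incubate at 37C with 5% CO2; add CellTiter-Fluor after 23 hr; read fluorescence 1 hr later.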
# Potency means the concentration at half of the fitted maximal effect; tags describe the fitted curve by direction and shape or compound fluorescence and quenching.
# Chain of UniProt Q92731 (Q92731 whole entry, looked up): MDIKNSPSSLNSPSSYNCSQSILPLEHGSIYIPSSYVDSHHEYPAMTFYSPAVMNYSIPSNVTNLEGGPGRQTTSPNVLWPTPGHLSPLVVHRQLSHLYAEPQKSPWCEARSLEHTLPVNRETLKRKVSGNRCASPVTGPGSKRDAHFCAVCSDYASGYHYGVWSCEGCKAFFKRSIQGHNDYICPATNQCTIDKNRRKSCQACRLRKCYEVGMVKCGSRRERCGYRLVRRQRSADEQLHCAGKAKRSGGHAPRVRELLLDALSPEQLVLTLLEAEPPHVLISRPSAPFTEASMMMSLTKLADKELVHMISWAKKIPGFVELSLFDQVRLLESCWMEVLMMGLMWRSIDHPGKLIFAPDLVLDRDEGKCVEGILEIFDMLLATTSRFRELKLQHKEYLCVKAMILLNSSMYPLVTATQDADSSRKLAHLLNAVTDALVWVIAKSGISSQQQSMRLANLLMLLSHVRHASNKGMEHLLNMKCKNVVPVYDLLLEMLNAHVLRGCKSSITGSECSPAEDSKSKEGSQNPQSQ
# Chain of UniProt P03372 (P03372 whole entry, looked up): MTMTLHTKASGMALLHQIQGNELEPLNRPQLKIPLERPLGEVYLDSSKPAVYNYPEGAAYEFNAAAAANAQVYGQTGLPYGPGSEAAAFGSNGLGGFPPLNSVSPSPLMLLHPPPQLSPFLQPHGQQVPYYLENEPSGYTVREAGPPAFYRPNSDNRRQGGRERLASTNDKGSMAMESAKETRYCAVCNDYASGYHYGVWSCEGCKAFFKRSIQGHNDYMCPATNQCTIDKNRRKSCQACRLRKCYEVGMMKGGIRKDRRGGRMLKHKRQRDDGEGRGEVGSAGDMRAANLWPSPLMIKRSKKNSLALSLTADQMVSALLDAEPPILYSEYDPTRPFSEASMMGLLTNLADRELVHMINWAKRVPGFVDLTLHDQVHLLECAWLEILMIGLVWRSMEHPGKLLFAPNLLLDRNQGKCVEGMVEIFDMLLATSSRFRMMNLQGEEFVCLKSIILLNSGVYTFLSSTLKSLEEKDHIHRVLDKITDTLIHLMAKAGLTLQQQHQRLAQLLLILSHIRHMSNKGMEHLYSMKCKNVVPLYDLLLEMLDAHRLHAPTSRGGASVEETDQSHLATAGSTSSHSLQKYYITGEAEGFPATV
smiles,measurement,setting,value
O=C(Nc1ccccc1-c1ccc(Cl)cc1)c1cccnc1Cl,Potency,[1],"inconclusive: 51.9 µM [cytotoxic, partial curve]"
same,Potency,[2],"inconclusive: 58.3 µM [cytotoxic, single point]"
same,Potency,[3],"inconclusive: 51.9 µM [activator, single point]"
same,Potency,[4],"inconclusive: 51.9 µM [cytotoxic, partial curve, poor fit]"
same,Potency,[5],active: 41.2 µM
same,Potency,[6],"inconclusive: 57.8 µM [inhibitor, partial curve, poor fit]"
same,Potency,[7],"inconclusive: 25.8 µM [inhibitor, full curve, poor fit]"
same,Potency,[8],"inconclusive: 36.4 µM [inhibitor, partial curve]"
C[C@]12Cc3nonc3C[C@@H]1CC[C@@H]1[C@@H]2CC[C@@]2(C)[C@H]1CC[C@]2(C)O,Potency,[1],active: 19 µM
same,Potency,[2],"inconclusive: 21.3 µM [cytotoxic, partial curve]"
same,Potency,[6],inconclusive: 29.8 µM [inhibitor]
same,Potency,[9],"inconclusive: 10 µM [activator, partial curve, poor fit]"
same,Potency,[10],"inconclusive: 3.35 µM [rising, full curve]"
same,Potency,[7],"inconclusive: 5.96 µM [inhibitor, full curve]"
same,Potency,[11],inconclusive: 29.8 µM
same,Potency,[8],active: 18.8 µM
same,Potency,[12],"inconclusive: 29.8 µM [cytotoxic, single point]"
CC(c1ccc(O)cc1)(c1ccc(O)cc1)c1ccc(O)cc1,Potency,[1],"inconclusive: 87.1 µM [cytotoxic, partial curve, poor fit]"
same,Potency,[2],"inconclusive: 54.9 µM [cytotoxic, partial curve]"
same,Potency,[4],"inconclusive: 155 µM [cytotoxic, partial curve, poor fit]"
same,Potency,[13],"inconclusive: 10.9 µM [cytotoxic, full curve]"
same,Potency,[6],"inconclusive: 77 µM [inhibitor, single point]"
same,Potency,[7],"inconclusive: 4.33 µM [inhibitor, full curve, poor fit]"
same,Potency,[12],inconclusive: 27.3 µM [cytotoxic]
COC(=O)c1cc(Oc2ccc(Cl)cc2Cl)ccc1[N+](=O)[O-],Potency,[1],"inconclusive: 24.5 µM [cytotoxic, partial curve]"
same,Potency,[2],"inconclusive: 27.5 µM [cytotoxic, partial curve]"
same,Potency,[6],"inconclusive: 68.6 µM [inhibitor, single point]"
Oc1ccc(C2(c3ccc(O)cc3)c3ccccc3-c3ccccc32)cc1,Potency,[1],"inconclusive: 49 µM [cytotoxic, partial curve, poor fit]"
same,Potency,[2],"inconclusive: 49 µM [cytotoxic, partial curve]"
same,Potency,[13],"inconclusive: 2.43 µM [cytotoxic, full curve]"
same,Potency,[6],active: 1.72 µM
same,Potency,[10],active: 54.5 µM
same,Potency,[7],active: 27.3 µM
same,Potency,[11],inconclusive: 68.6 µM [cytotoxic]
same,Potency,[8],"inconclusive: 77 µM [cytotoxic, single point]"
same,Potency,[12],active: 34.4 µM
Fc1ccc(C(OCCN2CCN(CCCc3ccccc3)CC2)c2ccc(F)cc2)cc1,Potency,[1],active: 9.52 µM
same,Potency,[3],active: 21.3 µM
same,Potency,[5],active: 23.9 µM
same,Potency,[6],active: 23.7 µM
same,Potency,[10],active: 18.8 µM
same,Potency,[7],active: 5.31 µM
same,Potency,[11],inconclusive: 33.5 µM
same,Potency,[8],"inconclusive: 6.68 µM [inhibitor, full curve, poor fit]"
Oc1cc(Cl)c(Cl)cc1Cl,Potency,[1],"inconclusive: 54.5 µM [cytotoxic, single point] and inactive"
same,Potency,[2],"inconclusive: 54.5 µM [cytotoxic, single point] and inconclusive: 61.6 µM [cytotoxic, partial curve, poor fit]"
same,Potency,[10],"inconclusive: 68.6 µM [cytotoxic, single point]"
same,Potency,[14],"inconclusive: 68 µM [cytotoxic, single point] and inconclusive: 61.1 µM [cytotoxic, single point]"
same,Potency,[7],"inconclusive: 34.1 µM [inhibitor, partial curve, poor fit] and inconclusive: 61.1 µM [inhibitor, single point]"
same,Potency,[11],"inconclusive: 2.73 µM [rising, full curve]"
same,"activity, negative = inhibition",[8],inconclusive: -29.6%
same,Potency,[12],"inconclusive: 68 µM [cytotoxic] and inconclusive: 68.6 µM [cytotoxic, partial curve, poor fit]"
